These results are taken from paper PMC4336329 (PLoS ONE, 2015).

Each structure is given as a SMILES string. Out of some 310,000 compounds screened, about 2,200 (0.71%) showed an effect of 50% or more. The effect is printed as a negative number. Some of the results follow.

The assay deals with human ether-à-go-go-related gene (hERG) potassium channel (human, UniProt Q12809). Description: primary screen, population patch clamp on CHO cells stably expressing hERG.
human ether-à-go-go-related gene (hERG) potassium channel, sequence (Q12809 whole entry, looked up): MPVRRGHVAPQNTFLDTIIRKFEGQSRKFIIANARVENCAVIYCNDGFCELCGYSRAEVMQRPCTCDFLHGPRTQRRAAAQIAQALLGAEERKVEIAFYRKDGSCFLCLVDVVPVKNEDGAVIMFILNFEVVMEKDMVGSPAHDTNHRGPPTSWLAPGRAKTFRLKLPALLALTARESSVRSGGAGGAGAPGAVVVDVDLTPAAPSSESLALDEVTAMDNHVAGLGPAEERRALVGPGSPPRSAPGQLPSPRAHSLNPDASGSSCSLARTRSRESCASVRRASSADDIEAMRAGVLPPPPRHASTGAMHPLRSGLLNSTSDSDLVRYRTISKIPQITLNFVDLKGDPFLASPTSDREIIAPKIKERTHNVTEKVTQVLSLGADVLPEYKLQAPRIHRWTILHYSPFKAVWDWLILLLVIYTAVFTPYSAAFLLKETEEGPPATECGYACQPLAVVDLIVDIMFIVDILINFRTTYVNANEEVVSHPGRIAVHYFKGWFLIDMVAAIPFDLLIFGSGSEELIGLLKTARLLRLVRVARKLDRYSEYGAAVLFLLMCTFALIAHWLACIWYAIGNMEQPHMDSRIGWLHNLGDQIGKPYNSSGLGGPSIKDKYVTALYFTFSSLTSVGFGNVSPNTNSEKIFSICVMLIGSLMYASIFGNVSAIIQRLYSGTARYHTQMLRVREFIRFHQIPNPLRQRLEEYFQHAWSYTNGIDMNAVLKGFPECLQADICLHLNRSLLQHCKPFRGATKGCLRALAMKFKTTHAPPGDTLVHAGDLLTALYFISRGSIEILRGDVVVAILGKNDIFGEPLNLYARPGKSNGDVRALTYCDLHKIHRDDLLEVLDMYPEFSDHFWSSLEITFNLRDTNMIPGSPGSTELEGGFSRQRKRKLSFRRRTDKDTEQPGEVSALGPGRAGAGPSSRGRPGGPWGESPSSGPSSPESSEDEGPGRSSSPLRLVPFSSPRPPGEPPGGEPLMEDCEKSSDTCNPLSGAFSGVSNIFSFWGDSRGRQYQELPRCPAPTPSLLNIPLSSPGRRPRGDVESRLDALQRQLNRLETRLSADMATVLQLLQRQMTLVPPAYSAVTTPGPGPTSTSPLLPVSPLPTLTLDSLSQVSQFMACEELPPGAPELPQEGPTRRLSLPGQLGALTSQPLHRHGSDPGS
With `O=C(c1cncc(Br)c1)N1CCN(S(=O)(=O)c2ccccc2C(F)(F)F)CC1`, the “hERG current change (%, negative = inhibition) at 1uM” value is recorded as 10.4%. `O=C(NCc1ccccc1)Nc1cccn(Cc2ccc(F)cc2)c1=O`: the “hERG current change (%, negative = inhibition) at 1uM” value was 8.43%. To `CCC1c2ccc(C)n2CCN1C(=O)Nc1ccccc1C(=O)OC` (stereo not shown) belongs 7.36%; to `CN1CC(=O)N(CC(=O)Nc2ccc(F)cc2)c2ccccc2C1=O`, 14.6%. For the compound `CCCCn1c(=O)c(CCC(=O)OCC(=O)NC(=O)NCCOC)nc2ccccc21`, the “hERG current change (%, negative = inhibition) at 1uM” value amounted to 2.11%. `COc1ccccc1-c1c(C(F)(F)F)oc2cc(OC(=O)c3ccccc3[N+](=O)[O-])ccc2c1=O`: the “hERG current change (%, negative = inhibition) at 1uM” value is given as 12.9%. With `COc1ccc(-c2cc(C(F)F)n3ncc(C(=O)N4CCCc5ccccc54)c3n2)cc1`, the “hERG current change (%, negative = inhibition) at 1uM” value turned out to be 15.6%. With `Cc1ccc(S(=O)(=O)NCC(=O)N(CC(=O)NC(C)(C)C)Cc2ccc3c(c2)OCO3)cc1`, the “hERG current change (%, negative = inhibition) at 1uM” value is reported as 13%. Regarding `O=C(Nc1ccc(N2CCOCC2)cc1)c1ccc(-c2ccccc2[N+](=O)[O-])o1`, the “hERG current change (%, negative = inhibition) at 1uM” value is recorded as 7.69%. To `Nc1c(C(=O)O)sc2nc(-c3ccc(F)cc3)cc(-c3ccccc3)c12` belongs 9.31%. Consider `O=C(COc1ccccc1)N=C1SC2CS(=O)(=O)CC2N1CCc1ccccc1` (stereo not shown), for which the “hERG current change (%, negative = inhibition) at 1uM” value was found to be 3.44%. For the compound `COc1ccccc1NC(=O)Cn1nc(-c2ccncc2)nc1SCC(=O)NC1CCCC1`, the “hERG current change (%, negative = inhibition) at 1uM” value is listed as -6.71%.

Take `Cc1ccc(S(=O)(=O)Cn2nnnc2C(C(C)C)N2CCN(Cc3ccco3)CC2)cc1` (stereo not shown): the “hERG current change (%, negative = inhibition) at 1uM” value is reported as 14.2%. The value for `CCOC(=O)c1sc(SC)c2c1CCC/C2=N/OC` was 10.3%; that for `O=C1c2cccc3cccc(c23)C(=O)N1CCCSc1ncn[nH]1` was 13.7%. Regarding `O=S(=O)(NCCCO)c1ccc2c(c1)Cc1cc(S(=O)(=O)NCCCO)ccc1-2`, the “hERG current change (%, negative = inhibition) at 1uM” value came out at 14.4%. Consider `O=C(CNC(=S)NC(=O)c1cccs1)c1ccccc1`, for which the “hERG current change (%, negative = inhibition) at 1uM” value was -1.43%. The value for `CCCCCCCCO` was 13.8%; that for `COc1cc(C2NC(=O)NC(C)=C2C(=O)NCc2ccccc2)c(Cl)cc1O` (stereo not shown) was 13.7%. Take `COc1ccc(-c2nnc(SCC(=O)N3CCCC3)o2)cc1`: the “hERG current change (%, negative = inhibition) at 1uM” value is on record as 8.1%. Take `Cc1ccc(S(=O)(=O)N2CCOC2CNC(=O)C(=O)NCCCN2CCOCC2)cc1` (stereo not shown): the “hERG current change (%, negative = inhibition) at 1uM” value is 13%.

As for `Fc1ccc(N2CCN(Cc3cnc(N4CCOCC4)s3)CC2)cc1`, the “hERG current change (%, negative = inhibition) at 1uM” value is -2.04%. On to `O=C(CCNC(=O)c1ccc(Cl)cc1)Nc1cccc(S(=O)(=O)N2CCCCCC2)c1`, for which the “hERG current change (%, negative = inhibition) at 1uM” value is -11.9%. With `CC1CCCN(C(=O)C2CCN(S(=O)(=O)c3cccc4cccnc34)CC2)C1` (stereo not shown), the “hERG current change (%, negative = inhibition) at 1uM” value stood at 0.528%. On to `N#Cc1cc([N+](=O)[O-])ccc1Oc1cccc(/C=N/NC(=O)c2cccc(Cl)c2)c1`, for which the “hERG current change (%, negative = inhibition) at 1uM” value is 17.9%.

On to `CCOC(=O)CN1c2ccccc2NC(=O)CC1C` (stereo not shown), for which the “hERG current change (%, negative = inhibition) at 1uM” value turned out to be 0.853%. The value for `c1cc(-c2nn[nH]n2)ccc1CN1CCCCC1` was 12.8%. Consider `O=S(=O)(Nc1nc2ccccc2nc1NCc1ccco1)c1ccc(Cl)cc1`, for which the “hERG current change (%, negative = inhibition) at 1uM” value is listed as 8.47%. The value for `CCn1c(SC)nnc1-c1nn(-c2ccccc2)ccc1=O` was 15.5%. For `CN(C)c1ccc(C(c2nnnn2C(C)(C)C)N2CCN(C(=O)c3ccco3)CC2)cc1` (stereo not shown), the “hERG current change (%, negative = inhibition) at 1uM” value came out at 3.93%.

On to `Cc1ccc(OCC(=O)Nc2ccc3c(c2)C(=O)NC3=O)c(C)c1`, for which the “hERG current change (%, negative = inhibition) at 1uM” value is reported as 7.92%. For `O=c1c2ccccc2[nH]c(=S)n1Cc1ccccc1`, the “hERG current change (%, negative = inhibition) at 1uM” value was determined as 13.9%. As to `Cc1ccc(NC(=S)N(Cc2ccco2)C(C)c2cccs2)c(Cl)c1` (stereo not shown), the “hERG current change (%, negative = inhibition) at 1uM” value stood at 8.42%. For the compound `Cc1ccc(N(CC(=O)NC2CCCC2)C(=O)c2ccc(C)s2)cc1`, the “hERG current change (%, negative = inhibition) at 1uM” value is listed as 6.67%.

As for `O=C(Nc1nc2ccccc2s1)c1ccccc1`, the “hERG current change (%, negative = inhibition) at 1uM” value is listed as 18.3%. To `CCOC(=O)C1CCN(C(=O)CCc2ccc(S(=O)(=O)NC(C)C)cc2)CC1` belongs 15.4%; to `COc1ccc2nc(NC(=O)CSc3nnc(-c4ccoc4C)n3C)sc2c1`, 8.42%. `Cc1ccc2c(C)c(C(=O)Nc3c(C)n(C)n(-c4ccccc4)c3=O)oc2c1`: the “hERG current change (%, negative = inhibition) at 1uM” value is 13.3%. On to `CC1CCN(C(=O)c2ccc(-c3ccccc3Cl)o2)CC1`, for which the “hERG current change (%, negative = inhibition) at 1uM” value turned out to be 6.31%. The value for `CCOc1ccc(S(=O)(=O)NCCC(=O)OCC(=O)N2CC(=O)Nc3ccccc32)cc1` was 10.8%; that for `OCCCNc1nc(-c2ccc(Cl)cc2)nc2ccccc12` was -3.18%; that for `Cc1sc(NC(=S)Nc2ccc(F)cc2)c(C(N)=O)c1C` was 9.15%.

Consider `CCc1ccccc1NC(=O)C1C(c2ccccc2)C1(Cl)Cl` (stereo not shown), for which the “hERG current change (%, negative = inhibition) at 1uM” value was determined as 17.5%. With `O=C(O)CSc1nnc(NC(=O)CN2CCOCC2)s1`, the “hERG current change (%, negative = inhibition) at 1uM” value was found to be 13.7%. To `CCOc1cc(NC(=S)NCC2CCCO2)c(OCC)cc1NC(=O)c1cccc(C)c1` (stereo not shown) belongs 14.5%. With `Cc1ccc(C(=O)OCC(=O)NCc2cccs2)cc1C`, the “hERG current change (%, negative = inhibition) at 1uM” value is 11.3%. As for `CC(=O)c1cc(NC(=O)c2ccc([N+](=O)[O-])cc2)c(=O)oc1C`, the “hERG current change (%, negative = inhibition) at 1uM” value was 15.6%. Consider `CC(Oc1ccc(Cl)cc1Cl)c1nc(-c2ccc(NC(=O)c3cccnc3)cc2)no1` (stereo not shown), for which the “hERG current change (%, negative = inhibition) at 1uM” value is 4.81%. For the compound `O=C(N/N=C/c1cc2c(cc1Cl)OCO2)c1cc(-c2ccccc2)n[nH]1`, the “hERG current change (%, negative = inhibition) at 1uM” value came to 15%. As for `CCOC(=O)N1CCN(C(=O)COc2ccc(Br)cc2Cl)CC1`, the “hERG current change (%, negative = inhibition) at 1uM” value was -0.976%. `O=C(NCc1ccc(F)cc1)c1cccc2c1C(=O)c1ccc(Cl)cc1S2(=O)=O`: the “hERG current change (%, negative = inhibition) at 1uM” value amounted to 7.11%. On to `O=C(Nc1ccc2snnc2c1)N1CCN(c2ccccc2)CC1`, for which the “hERG current change (%, negative = inhibition) at 1uM” value is listed as -3.46%. Regarding `CN(C(=O)c1ccc(Cl)c(S(=O)(=O)N2CCOCC2)c1)c1ccccc1C(=O)O`, the “hERG current change (%, negative = inhibition) at 1uM” value stood at 8.24%. Take `COc1ccc(NS(=O)(=O)c2cc(N)ccc2N2CCCCC2)cc1`: the “hERG current change (%, negative = inhibition) at 1uM” value is 7.33%. Regarding `NC(=O)C[C@H]1NC(=O)[C@H](CCC(=O)O)NC(=O)c2cc([N+](=O)[O-])cc(I)c2NCCC[C@@H](C(N)=O)NC1=O`, the “hERG current change (%, negative = inhibition) at 1uM” value came to 13.9%.
